These results are taken from publication PMC7942396, “Drug Repurposing Screen for Compounds Inhibiting the Cytopathic Effect of SARS-CoV-2” (Frontiers in Pharmacology, 2021).

For orientation: EC50 means the concentration at which the effect is half-maximal.

Structures can show the parent of a compound that is named as a salt. Where two headings read alike, the source gives them in different places.

Data set [1] concerns SARS-CoV-2 (USA_WA1/2020). Nature of the data set: microbe, parasite or virus in culture. The data set is classed as cell-based. The note with it: for Emax: Severe acute respiratory syndrome coronavirus 2, Vero C1008, read-out: CPE % Efficacy.
A further data set is described as follows: in vitro. The note with it: African green monkey.
Where [2] appears, read: Severe acute respiratory syndrome coronavirus 2, Vero C1008, 72 h, read-out: CPE EC50.
Where [3] appears, read: Severe acute respiratory syndrome coronavirus 2, Vero C1008, read-out: CPE EC50.

In the case of `Fc1ccc(C(c2ccc(F)cc2)N2CCN(C/C=C/c3ccccc3)CC2)cc1` [Flunarizine, reference compound], the EC50 in data set [1] (setting [2]) came out at 10 µM.

Take `Clc1ccc2c(c1)C(N1CCNCC1)=Nc1ccccc1O2` [Amoxapine]: the EC50 in data set [1] (setting [3]) came out at 8.91 µM. Regarding `Clc1ccc2c(c1)CCc1cccnc1C2=C1CCNCC1` [Desloratadine], the Emax in data set [1] came out at 69%. Further, the EC50 in data set [1] (setting [3]) turned out to be 10 µM. With `CN(C)CCCN1c2ccccc2CCc2ccc(Cl)cc21` [Clomipramine hydrochloride], in data set [1] (setting [3]), the EC50 was determined as 10 µM. On to `CN1[C@@H]2CC[C@H]1C[C@@H](OC(c1ccccc1)c1ccccc1)C2` [Benztropine mesylate], for which the EC50 in data set [1] (Severe acute respiratory syndrome coronavirus 2, Vero C1008, read-out: CPE EC50 (uM)) turned out to be 14.1 µM. Regarding `CN1CCC(=C2c3ccccc3C=Cc3ccccc32)CC1` [Cyproheptadine hydrochloride], the EC50 in data set [1] (setting [3]) worked out at 11.2 µM. As to `CN1CCC[C@@H]1CCO[C@](C)(c1ccccc1)c1ccc(Cl)cc1` [Clemastine fumarate, reference compound], in data set [1] (setting [2]), the EC50 was found to be 7.9 µM. The Emax in data set [1] was found to be 96%. For `CN1CCN(CCCN2c3ccccc3Sc3ccc(Cl)cc32)CC1` [Prochlorperazine dimaleate], in data set [1] (setting [3]), the EC50 came to 8.91 µM.

As for `C[C@@H]1C[C@H](N)C[C@H](c2ccncc2NC(=O)c2ccc(F)c(-c3c(F)cccc3F)n2)C1` [LGH-447], the Emax in data set [1] was 91.4%. In the data set “in vitro”, this compound returned a CC50 of 12.6 µM and a cytotoxicity of 38.3%.
